In a collection of fitness landscapes (doi:10.1126/science.1257360):
The list shows a part of the results.

B1: PhoQ; a variant is named by its letters at X, in order, P23837 (parent)
chain: MKKLLRLFFPLSLRVRFLLATAAVVLVLSLAYGMVALIGYSVSFDKTTFRLLRGESNLFYTLAKWENNKLHVELPENIDKQSPTMTLIYDENGQLLWAQRDVPWLMKMIQPDWLKSNGFHEIEADVNDTSLLLSGDHSIQQQLQEVREDDDDAEMTHSVAVNVYPATSRMPKLTIVVVDTIPVELKSSYMVWSWFIYVLSANLLLVIPLLWVAAWWSLRPIEALAKEVRELEEHNRELLNPATTRELTSLVRNLNRLLKSERERYDKYRTTLTDLTHSLKTPLXXLQXXLRSLRSEKMSVSDAEPVMLEQISRISQQIGYYLHRASMRGGTLLSRELHPVAPLLDNLTSALNKVYQRKGVNISLDISPEISFVGEQNDFVEVMGNVLDNACKYCLEFVEISARQTDEHLYIVVEDDGPGIPLSKREVIFDRGQRVDTLRPGQGVGLAVAREITEQYEGKIVAGESMLGGARMEVIFGRQHSAPKDE

Variants of: B1
Test: enrichment ratio after two sorts for PhoP signalling (ratio (wild type AVST 3.29)); higher = more functional
Conditions: with PhoP (E. coli)

| Variant | enrichment ratio |
| --- | --- |
| DSTR | ≤ 0.25 |
| IAAL | ≤ 0.25 |
| FEHN | ≤ 0.25 |
| NHPV | ≤ 0.25 |
| IKST | ≤ 0.25 |
| KQIK | ≤ 0.25 |
| PETT | ≤ 0.25 |
| LIPI | 0.684 |
| YFQK | ≤ 0.25 |
| HTIH | ≤ 0.25 |
| GWFP | ≤ 0.25 |
| FKDK | ≤ 0.25 |
| NVPG | ≤ 0.25 |
| EKYA | ≤ 0.25 |
| MFFQ | ≤ 0.25 |
| CTCL | ≤ 0.25 |
| KPFP | ≤ 0.25 |
| FRSS | ≤ 0.25 |
| QGRR | ≤ 0.25 |
| MARF | ≤ 0.25 |
| IGRT | ≤ 0.25 |
| MDMP | ≤ 0.25 |
| CCSF | ≤ 0.25 |
| SQYY | ≤ 0.25 |
| GGVY | ≤ 0.25 |
| YGHM | ≤ 0.25 |

| Variant | enrichment ratio |
| --- | --- |
| GIWL | ≤ 0.25 |
| NWFH | ≤ 0.25 |
| RAKS | ≤ 0.25 |
| SRKE | ≤ 0.25 |
| AVMW | ≤ 0.25 |
| LIDQ | ≤ 0.25 |
| RCNR | 0.343 |
| QHII | ≤ 0.25 |
| NARC | ≤ 0.25 |
| QGSS | 14.4 |
| DYQK | ≤ 0.25 |
| RPNH | ≤ 0.25 |
| IRVN | ≤ 0.25 |
| IGSN | ≤ 0.25 |
| QSKE | ≤ 0.25 |
| PGLR | ≤ 0.25 |
| VIHW | ≤ 0.25 |
| LMRE | ≤ 0.25 |
| GTKK | ≤ 0.25 |
| NTSW | ≤ 0.25 |
| KKLV | ≤ 0.25 |
| HGVW | ≤ 0.25 |
| LPSC | ≤ 0.25 |
| MQEI | ≤ 0.25 |
| MMSG | ≤ 0.25 |
| SMHP | ≤ 0.25 |

| Variant | enrichment ratio |
| --- | --- |
| KCHG | ≤ 0.25 |
| RIGK | ≤ 0.25 |
| HACH | ≤ 0.25 |
| KDTT | ≤ 0.25 |
| WPTF | ≤ 0.25 |
| VSSQ | ≤ 0.25 |
| PCQC | ≤ 0.25 |
| AQKN | ≤ 0.25 |
| ESRA | ≤ 0.25 |
| YCGY | ≤ 0.25 |
| GSHL | ≤ 0.25 |
| ICDL | ≤ 0.25 |
| ANNE | ≤ 0.25 |
| WLFI | ≤ 0.25 |
| IMNI | ≤ 0.25 |
| IWDW | ≤ 0.25 |
| HETR | ≤ 0.25 |
| HFTN | ≤ 0.25 |
| QNAY | 3.17 |
| IKHK | ≤ 0.25 |
| MSGA | 0.29 |
| LNQS | ≤ 0.25 |
| APSN | ≤ 0.25 |
| IFSA | ≤ 0.25 |
| EEAP | ≤ 0.25 |
| HYVS | ≤ 0.25 |

| Variant | enrichment ratio |
| --- | --- |
| TEEF | ≤ 0.25 |
| LDLR | ≤ 0.25 |
| TLVE | ≤ 0.25 |
| NQFV | ≤ 0.25 |
| SNTR | ≤ 0.25 |
| VAWF | ≤ 0.25 |
| PIRF | ≤ 0.25 |
| TVED | ≤ 0.25 |
| TSRE | ≤ 0.25 |
| QGLC | 15.9 |
| ECDN | ≤ 0.25 |
| TKKP | ≤ 0.25 |
| ENWF | ≤ 0.25 |
| NYMY | ≤ 0.25 |
| TLQV | 10.2 |
| DANP | ≤ 0.25 |
| HFHR | ≤ 0.25 |
| ICAS | ≤ 0.25 |
| VMWI | ≤ 0.25 |
| CKIQ | ≤ 0.25 |
| MQLA | ≤ 0.25 |
| MTTS | ≤ 0.25 |
| PNNW | ≤ 0.25 |
| DMLQ | ≤ 0.25 |
| QAYY | 10.3 |
| HHDG | ≤ 0.25 |

| Variant | enrichment ratio |
| --- | --- |
| VLRA | ≤ 0.25 |
| MTCF | 1.4 |
| DWLQ | ≤ 0.25 |
| AGRM | ≤ 0.25 |
| AMMR | 5.86 |
| KATG | ≤ 0.25 |
| VGGV | ≤ 0.25 |
| WMCE | ≤ 0.25 |
| TCFT | ≤ 0.25 |
| SAPM | 2.5 |
| GCAF | 0.687 |
| ENPV | ≤ 0.25 |
| WCKH | ≤ 0.25 |
| IVCK | ≤ 0.25 |
| HLCW | ≤ 0.25 |
| HHSI | ≤ 0.25 |
| WIDP | ≤ 0.25 |
| RVIW | ≤ 0.25 |
| AASI | 10.4 |
| GDCL | 1.54 |
| FADM | ≤ 0.25 |
| ETHP | ≤ 0.25 |
| TMMN | 11.5 |
| YFDR | ≤ 0.25 |
| TLEE | 3.87 |
| LIYH | ≤ 0.25 |

| Variant | enrichment ratio |
| --- | --- |
| LPMK | ≤ 0.25 |
| IFMC | ≤ 0.25 |
| MMDE | ≤ 0.25 |
| ETGC | ≤ 0.25 |
| QNDL | ≤ 0.25 |
| WTVV | ≤ 0.25 |
| TVCK | 1.72 |
| PMAC | ≤ 0.25 |
| TFFG | ≤ 0.25 |
| MYTQ | ≤ 0.25 |
| VNYR | ≤ 0.25 |
| KLLR | ≤ 0.25 |
| YQHG | ≤ 0.25 |
| STVW | 2.42 |
| TMGK | ≤ 0.25 |
| QMIL | ≤ 0.25 |
| GEFL | ≤ 0.25 |
| PSHF | ≤ 0.25 |
| KDIA | ≤ 0.25 |
| FDDL | ≤ 0.25 |
| SWVC | ≤ 0.25 |
| DGGM | ≤ 0.25 |
| GSNA | ≤ 0.25 |
